± gives the standard deviation of the averaged measurements. Laboratory Escherichia coli strains with one amino-acid change in an essential protein, pooled on minimal glucose agar with carbenicillin or gentamicin at twice the control MIC (plus kanamycin and chloramphenicol for the plasmids), 48 h. Fold change of barcode share against drug-free plates; higher = less susceptible. Active = above 20 in both replicates (the paper's putatively resistant). '<' = one read or none on drug, '>' = one read or none on a drug-free plate. Shares are relative, so most strains fall below 1 when a few take over. Listed are strains with at least 15 reads on both drug-free plates, and hits; most hits rest on fewer reference reads. Replicate rank correlation about 0.5. Edits are read from barcodes. Where only a bound is given, the exact number is not on record here.

To fix the notation:
B1: mrdB; numbered along this chain (parent)
chain: MTDNPNKKTFWDKVHLDPTMLLILLALLVYSALVIWSASGQDIGMMERKIGQIAMGLVIMVVMAQIPPRVYEGWAPYLYIICIILLVAVDAFGAISKGAQRWLDLGIVRFQPSEIAKIAVPLMVARFINRDVCPPSLKNTGIALVLIFMPTLLVAAQPDLGTSILVALSGLFVLFLSGLSWRLIGVAVVLVAAFIPILWFFLMHDYQRQRVMMLLDPESDPLGAGYHIIQSKIAIGSGGLRGKGWLHGTQSQLEFLPERHTDFIFAVLAEELGLVGILILLALYILLIMRGLWIAARAQTTFGRVMAGGLMLILFVYVFVNIGMVSGILPVVGVPLPLVSYGGSALIVLMAGFGIVMSIHTHRKMLSKSV
B2: yrfF; numbered along this chain (parent)
chain: MSTIVIFLAALLACSLLAGWLIKVRSRRRQLPWTNAFADAQTRKLTPEERSAVENYLESLTQVLQVPGPTGASAAPISLALNAESNNVMMLTHAITRYGISTDDPNKWRYYLDSVEVHLPPFWEQYINDENTVELIHTDSLPLVISLNGHTLQEYMQETRSYALQPVPSTQASIRGEESEQIELLNIRKETHEEYALSRPRGLREALLIVASFLMFFFCLITPDVFVPWLAGGALLLLGAGLWGLFAPPAKSSLREIHCLRGTPRRWGLFGENDQEQINNISLGIIDLVYPAHWQPYIAQDLGQQTDIDIYLDRHVVRQGRYLSLHDEVKNFPLQHWLRSTIIAAGSLLVLFMLLFWIPLDMPLKFTLSWMKGAQTIEATSVKQLADAGVRVGDTLRISGTGMCNIRTSGTWSAKTNSPFLPFDCSQIIWNDARSLPLPESELVNKATALTEAVNRQLHPKPEDESRVSASLRSAIQKSGMVLLDDFGDIVLKTADLCSAKDDCVRLKNALVNLGNSKDWDALVKRANAGKLDGVNVLLRPVSAESLDNLVATSTAPFITHETARAAQSLNSPAPGGFLIVSDEGSDFVDQPWPSASLYDYPPQEQWNAFQKLAQMLMHTPFNAEGIVTKIFTDANGTQHIGLHPIPDRSGLWRYLSTTLLLLTMLGSAIYNGVQAWRRYQRHRTRMMEIQAYYESCLNPQLITPSESLIE
B3: folC; numbered along this chain (parent)
chain: MIIKRTPQAASPLASWLSYLENLHSKTIDLGLERVSLVAARLGVLKPAPFVFTVAGTNGKGTTCRTLESILMAAGYKVGVYSSPHLVRYTERVRVQGQELPESAHTASFAEIESARGDISLTYFEYGTLSALWLFKQAQLDVVILEVGLGGRLDATNIVDADVAVVTSIALDHTDWLGPDRESIGREKAGIFRSEKPAIVGEPEMPSTIADVAQEKGALLQRRGVEWNYSVTDHDWAFSDAHGTLENLPLPLVPQPNAATALAALRASGLEVSENAIRDGIASAILPGRFQIVSESPRVIFDVAHNPHAAEYLTGRMKALPKNGRVLAVIGMLHDKDIAGTLAWLKSVVDDWYCAPLEGPRGATAEQLLEHLGNGKSFDSVAQAWDAAMADAKAEDTVLVCGSFHTVAHVMEVIDARRSGGK
B4: gpsA; numbered along this chain (parent)
chain: MNQRNASMTVIGAGSYGTALAITLARNGHEVVLWGHDPEHIATLERDRCNAAFLPDVPFPDTLHLESDLATALAASRNILVVVPSHVFGEVLRQIKPLMRPDARLVWATKGLEAETGRLLQDVAREALGDQIPLAVISGPTFAKELAAGLPTAISLASTDQTFADDLQQLLHCGKSFRVYSNPDFIGVQLGGAVKNVIAIGAGMSDGIGFGANARTALITRGLAEMSRLGAALGADPATFMGMAGLGDLVLTCTDNQSRNRRFGMMLGQGMDVQSAQEKIGQVVEGYRNTKEVRELAHRFGVEMPITEEIYQVLYCGKNAREAALTLLGRARKDERSSH
B5: lysA; a variant is named by its letters at X, in order (parent)
chain: MPHSLFSTDTDLTAENLLRLPAEFGCPXWXYDAQIIRRQIAALKQFDVVRFAQKACSNIHILRLMREQGVKVDSVSLGEIERALAAGYNPQTHPDDIXXTADVIDQATLERVSELQIPVNAGSVDMLDQLGQVSPGHRVWLRVNPGFGHGHSQKTNTGGENSKHGIWYTDLPAALDVIQRHHLQLVGIHMHIGSGVDYAHLEQXCGAMVRQVIEFGQDLQAISAGGGLSVPYQQGEEAVDTEHYYGLWNAAREQIARHLGHPVKLEIEPGRFLVAQSGVXXTQVRSVKQMGSRHFVLVDAGFNDLMRPAMYGSYHHISALAADGRSLEHAPTVETVVAGPLCESGDVFTQQEGGNVETRALPEVKAGDYLVLHDTGAYGASMSSNYNSRPLLPEVLFDNGQARLIRRRQTIEELLALELL

Variants of B1 are the subject of the first data set. Briefly: barcode share on antibiotic plates over drug-free plates; higher = less susceptible. The following applies: with Escherichia coli (laboratory strain); antibiotic: gentamicin; 2× MIC (MIC 0.45 µg/mL). As for the experimental part: (§1)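 A pool of E. coli strains, each edited to carry one amino-acid change in an essential protein, was grown for 48 h on minimal glucose agar with or without antibiotic; strain barcodes were sequenced; mean of two replicates.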
As to F175Q, the “fold change of barcode share” value was < 0.0185.

The variants in a further data set derive from B2. The data set is described as above. The following applies: with Escherichia coli (laboratory strain); antibiotic: gentamicin; 2× MIC (MIC 0.45 µg/mL). The protocol:
as §1
Take W123D: the “fold change of barcode share” value amounted to 0.019 ± 0.019.

A further data set covers variants of B3. Described as above. The following applies: with Escherichia coli (laboratory strain); antibiotic: carbenicillin; 2× MIC (3.1 µg/mL). The protocol: as §1
Regarding F52A, the “fold change of barcode share” value came out at 0.314 ± 0.014.
On the same count and under the same terms, next, F52W: 0.437 ± 0.24.
Consider F52Q, for which the “fold change of barcode share” value turned out to be 0.372 ± 0.051.
Still for that read-out and setting: next, L71A: 0.34 ± 0.1; L71P: 0.304 ± 0.022.

The data set is the same for the next values; noted with them: with Escherichia coli (laboratory strain); antibiotic: gentamicin; 2× MIC (MIC 0.45 µg/mL).
For F52A, the “fold change of barcode share” value was 0.0487 ± 0.034.
For the variant F52W, the “fold change of barcode share” value stood at 0.969 ± 1.4.
For the variant F52Q, the “fold change of barcode share” value was determined as 0.00627 ± 0.00052.
Same read-out and setting: next, L71A: 0.0158 ± 0.0074.

In the next data set the parent is B4. The data set is described as above. The following applies: with Escherichia coli (laboratory strain); antibiotic: carbenicillin; 2× MIC (3.1 µg/mL). The protocol:
as §1
For L33Q, the “fold change of barcode share” value came out at 0.353 ± 0.046.
As to L33A, the “fold change of barcode share” value is 0.237 ± 0.031.
Still for that read-out and setting: next, L33W: 0.245 ± 0.081; L33D: 0.245 ± 0.019; I310A: 0.31 ± 0.16.
Turning to I310Q, the “fold change of barcode share” value turned out to be 0.108 ± 0.0058.
Regarding I310W, the “fold change of barcode share” value is > 69.1 [active].
Turning to F88Q, the “fold change of barcode share” value is 0.247 ± 0.054.
For F88A, the “fold change of barcode share” value was found to be 0.2255 ± 0.0022.
Same read-out and setting: next, I137W: 0.46 ± 0.15; I137A: 0.404 ± 0.18.
Same read-out and setting: the result for I137P reads 0.582 ± 0.01.
Take I137Q: the “fold change of barcode share” value stood at 0.31 ± 0.046.
The same measure, in the same setting: the result for L80D reads 0.351 ± 0.13; that for L80Q, 0.444 ± 0.0039; that for L80W, 0.307 ± 0.078.
For the variant L80A, the “fold change of barcode share” value worked out at 0.385 ± 0.2.
Take V194Q: the “fold change of barcode share” value turned out to be 0.36 ± 0.0048.
With V194A, the “fold change of barcode share” value is 0.329 ± 0.1.
Consider V194D, for which the “fold change of barcode share” value is 0.273 ± 0.1.
For V194W, the “fold change of barcode share” value came to 0.764 ± 0.61.

Staying with this data set, now noted: with Escherichia coli (laboratory strain); antibiotic: gentamicin; 2× MIC (MIC 0.45 µg/mL).
On to L33Q, for which the “fold change of barcode share” value amounted to 0.00867 ± 0.0076.
L33A: the “fold change of barcode share” value stood at 0.00857 ± 0.007.
Same read-out and setting: the result for L33W reads 0.0114 ± 0.0098; that for L33D, < 0.00387.
The same measure, in the same setting: the result for I310Q reads < 0.0143; that for F88Q, < 0.00242; that for F88A, 0.00425 ± 0.00026.
On to I137W, for which the “fold change of barcode share” value came to 0.0541 ± 0.064.
Same read-out and setting: the result for I137A reads 0.00522 ± 0.0048; that for I137P, 0.0256 ± 0.012; that for I137Q, 0.00447 ± 0.0045.
The same measure, in the same setting: the result for L80D reads < 0.00676.
Regarding L80Q, the “fold change of barcode share” value came out at 0.0132 ± 0.0011.
Consider L80W, for which the “fold change of barcode share” value was 0.0255 ± 0.033.
With L80A, the “fold change of barcode share” value was found to be 0.0128 ± 0.013.
Same read-out and setting: next, V194Q: 0.0136 ± 0.0074; V194A: 0.273 ± 0.38; V194D: 0.00574 ± 0.0049.
On to V194W, for which the “fold change of barcode share” value was 0.0047 ± 0.0026.

Variants of B5 are the subject of another data set. The data set is described as above. The following applies: with Escherichia coli (laboratory strain); antibiotic: gentamicin; 2× MIC (MIC 0.45 µg/mL). The protocol: as §1
Take VAVFVLI: the “fold change of barcode share” value is 0.0361 ± 0.035.
